From article PMC4336329 (PLoS ONE, 2015)
In all, about 310,000 compounds went through this assay and about 14,000 (4.5%) showed an effect of 50% or more. Effects have a minus sign here. The list shows a part of the results.

Each molecule was assayed against human ether-à-go-go-related gene (hERG) potassium channel (human, UniProt Q12809) (assay: primary screen, population patch clamp on CHO cells stably expressing hERG).
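Note: peak tail current of the secondary pulse compared with the same well before compound.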

Chain of human ether-à-go-go-related gene (hERG) potassium channel (Q12809 whole entry, looked up): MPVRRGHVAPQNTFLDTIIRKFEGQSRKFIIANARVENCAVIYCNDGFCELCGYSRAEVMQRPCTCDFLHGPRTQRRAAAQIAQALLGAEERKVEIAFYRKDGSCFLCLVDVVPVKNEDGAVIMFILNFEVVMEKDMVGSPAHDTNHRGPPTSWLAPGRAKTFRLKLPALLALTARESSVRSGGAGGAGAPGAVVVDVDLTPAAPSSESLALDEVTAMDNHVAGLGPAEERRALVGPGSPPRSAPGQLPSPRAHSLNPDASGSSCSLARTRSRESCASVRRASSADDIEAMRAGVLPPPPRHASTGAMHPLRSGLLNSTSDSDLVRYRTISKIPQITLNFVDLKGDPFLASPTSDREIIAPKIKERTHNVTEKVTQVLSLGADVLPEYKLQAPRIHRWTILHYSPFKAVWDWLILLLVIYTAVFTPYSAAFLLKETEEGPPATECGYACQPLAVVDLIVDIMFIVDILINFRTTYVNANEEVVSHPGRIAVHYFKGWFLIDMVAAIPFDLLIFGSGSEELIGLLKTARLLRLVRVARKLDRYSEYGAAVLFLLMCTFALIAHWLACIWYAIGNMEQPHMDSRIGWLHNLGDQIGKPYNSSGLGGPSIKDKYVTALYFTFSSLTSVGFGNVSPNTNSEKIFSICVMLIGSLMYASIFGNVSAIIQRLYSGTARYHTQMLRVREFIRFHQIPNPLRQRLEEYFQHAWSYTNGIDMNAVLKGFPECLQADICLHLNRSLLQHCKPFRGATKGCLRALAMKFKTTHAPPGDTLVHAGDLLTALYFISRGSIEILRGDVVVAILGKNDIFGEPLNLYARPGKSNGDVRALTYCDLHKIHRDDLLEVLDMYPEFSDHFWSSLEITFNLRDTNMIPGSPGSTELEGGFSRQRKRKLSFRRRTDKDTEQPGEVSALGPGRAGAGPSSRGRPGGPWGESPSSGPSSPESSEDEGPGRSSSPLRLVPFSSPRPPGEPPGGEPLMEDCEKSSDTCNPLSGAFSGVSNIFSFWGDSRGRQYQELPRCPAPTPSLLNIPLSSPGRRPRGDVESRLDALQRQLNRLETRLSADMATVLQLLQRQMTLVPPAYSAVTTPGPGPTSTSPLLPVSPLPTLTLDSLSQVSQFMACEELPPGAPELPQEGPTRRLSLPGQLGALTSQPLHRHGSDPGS

| Structure (SMILES) | hERG current change (%, negative = inhibition) at 10uM [%] |
| --- | --- |
| COC(=O)C(C)(C(=O)OC)c1ccc(C(F)(F)F)cc1[N+](=O)[O-] | 22.7 |
| CCOc1ccc(CCNC(=O)CCC(=O)N2CCOc3ccc(C)cc32)cc1OCC | -13.5 |
| COc1ccc(N(C(=O)c2ccco2)C(C(=O)NC2CCCC2)c2ccncc2)cc1OC (stereo not drawn) | 5.24 |
| Cc1ccc(/C=C\c2nccc3c2[nH]c2ccccc23)cc1 | -19.5 |
| COC(=O)Cc1c(O)ccn(Cc2ccc3c(c2)OCO3)c1=O | 37.3 |
| COc1ccc(OC)c(S(=O)(=O)NCC2CCCO2)c1 (stereo not drawn) | 9.09 |
| COCCNC(=O)CSc1nc(-c2ccccc2)cs1 | -7.95 |
| N#Cc1ccc(/C=N/NC(=O)CCc2ccc(S(=O)(=O)N3CCOCC3)cc2)cc1 | -49.1 |
| COc1cccc(C2NC(=O)NC(C)=C2C(=O)OCC2CCCO2)c1 (stereo not drawn) | 1.88 |
| CC1CCC(=NNC(=O)c2ccccc2-n2cccc2)CC1 (stereo not drawn) | -5.88 |
| Cc1cc(C)cc(N(CC(=O)N2CCN(c3ccccc3)CC2)S(=O)(=O)c2c(C)noc2C)c1 | -34.6 |
| Cc1ccccc1C(=O)NCCCNC(=O)c1ccccc1C | 6.58 |
| NC(=O)CSc1nnc(CNc2cccc(Cl)c2)n1CCc1ccccc1 | -17.6 |
| Cc1ccc(C)c(N2CC(=O)N(c3cc(C)ccc3C)CC2=O)c1 | 11.4 |
| CC(C)CC(=O)Nc1cc(C(F)(F)F)ccc1N1CCOCC1 | 4.35 |
| COc1cccc(SCc2noc(C(=O)NC(C)C)c2C(=O)O)c1 | -2.25 |
| O=C(c1cc(COc2cccc(C(F)(F)F)c2)on1)N1CCc2ccccc2C1 | 10.4 |
| COc1cc(OC)nc(NC(=O)CS(=O)(=O)c2ccccc2)n1 | -4.12 |
| CCOC(=O)N1CCN(S(=O)(=O)c2ccc(OC)c(C(=O)N3CCCCC3)c2)CC1 | 3.28 |
| CC(C)c1ccccc1NC(=O)CCc1nc2ccccc2s1 | -19.5 |
| Cn1cc(Cl)c(/C(N)=N/OC(=O)c2ccccc2C(F)(F)F)n1 | 14.2 |

| Structure (SMILES) | hERG current change (%, negative = inhibition) at 10uM [%] |
| --- | --- |
| CCN1C(=O)[C@H]2[C@@H](c3ccc(C)cc3)N3C(=O)N(c4ccc(C(F)(F)F)cc4)C(=O)[C@@]3(CC)[C@H]2C1=O | 14.1 |
| O=C(O)C1C2CCC(O2)C1C(=O)NCc1ccncc1 (stereo not drawn) | 8.42 |
| COc1ccc(CCC(C)NCc2cccc(Br)c2)cc1 (stereo not drawn) | -64.6 |
| CCC(C)N(C(=O)COC(=O)COc1c(C)cc(C)cc1C)C1CCS(=O)(=O)C1 (stereo not drawn) | -3.97 |
| COC(=O)c1ccc(COC(=O)CNC(=O)c2ccc(-c3ccccc3)cc2)cc1 | 3.65 |
| CC(C)C(=O)Nc1ccc(C(=O)NNC(=S)NC(=O)c2cccs2)cc1 | 12.8 |
| CCOC(=O)COc1c(OC)cc(Cl)cc1C1Nc2ccccc2C(=O)N1c1cccc(C)c1 (stereo not drawn) | -8.45 |
| CCc1ccc(CN2CCN(C(=O)Cc3ccccc3)CC2)cc1.O=C(O)C(=O)O | -22.5 |
| C=CCNC(=O)c1ccc2nc(-c3ccccc3)c(-c3ccccc3)nc2c1 | -15.4 |
| COc1ccc(-c2csc(NC(=O)CN3C(=O)C4CCCCC4C3=O)n2)c(OC)c1 (stereo not drawn) | 2.26 |
| CCOc1ccc2nc(SCC(=O)NCc3ccc(S(N)(=O)=O)cc3)[nH]c2c1 | 31.8 |
| O=C(CN1C(=O)CCC1=O)NNc1ccc2ccccc2c1 | 9.19 |
| CC(=O)OCc1c(C(F)(F)F)nn(C)c1Sc1ccccc1 | -21.1 |
| CCCc1nc(N2CCCC2)c(C#N)c2c1CCCC2 | 4.06 |
| O=C(NCCN1CCN(c2ccccc2)CC1)C1CCCN(S(=O)(=O)c2cnc[nH]2)C1 (stereo not drawn) | 6.71 |
| CCOC(=O)c1nnn(-c2nonc2-n2cccc2)c1CN1CCC(C)CC1 | 0.67 |
| CC1=C(C(=O)Nc2cccc(F)c2)C(c2ccsc2)C2=C(CC(C)(C)CC2=O)N1 (stereo not drawn) | -19.7 |
| Cc1[nH]n(C(N)=S)c(=O)c1N=Nc1cc(C(F)(F)F)ccc1Cl | 21.4 |
| Cc1ccc(C(CC(=O)c2ccc(Cl)cc2)C(=O)O)cc1 (stereo not drawn) | 8 |
| O=C(CCN1C(=O)c2ccc(Br)cc2C1=O)NC1CCCCC1 | -9.86 |
| Cc1ccc(CC(=O)N(C)CC(=O)N(CC(C)C)c2c(N)n(CC(C)C)c(=O)[nH]c2=O)cc1C | -2.54 |

| Structure (SMILES) | hERG current change (%, negative = inhibition) at 10uM [%] |
| --- | --- |
| Cc1onc(-c2c(F)cccc2Cl)c1C(=O)NC(=S)NC1CCSC1=O (stereo not drawn) | 5.43 |
| O=C(NCCCN1CCCCC1)C1CCN(S(=O)(=O)N2CCC3(CC2)OCCO3)CC1 | 24.9 |
| CC(NC(=O)c1cc2ccccc2oc1=O)c1ccc(O)cc1 (stereo not drawn) | 2.49 |
| CCc1ccc(N(C(=O)c2csnn2)C(C(=O)NCc2ccccc2)c2ccco2)cc1 (stereo not drawn) | -24.9 |
| COc1ccc(CN2CCNC(=O)C2CC(=O)NC2CC(C)(C)CC(C)(C)C2)cc1OC (stereo not drawn) | 3.28 |
| FC(F)(F)c1cccc(-n2nnnc2C2(N3CCOCC3)CCCCC2)c1 | -18 |
| Cn1nc(-c2ccccc2)c(CN2CCN(c3ncccn3)CC2)c1Cl | -2.27 |
| Cc1ccccc1C(=O)Nc1c(C(=O)N2CCCC2)cnn1-c1ccccc1 | 4.93 |
| CCCCN(CC)CCNC(=O)c1cc2c(=O)[nH]c3ccccc3c2n1C | -9.95 |
| COc1cc(C(=O)NNC2=CC(=O)CC(C)(C)C2)cc(OC)c1OC | 0.946 |
| O=C(c1ccc(C(F)(F)F)cc1)n1ccc(-c2cccs2)n1 | 17.6 |
| CCOCC(=O)N1CCN(c2ccc([N+](=O)[O-])cc2)CC1 | -71.8 |
| CCN1C(=O)C2(C(C#N)=C(N)Oc3c2c(C)nn3-c2ccccc2)c2ccccc21 (stereo not drawn) | -21.3 |
| C/C(=N\NC(=O)c1ccccc1)c1c(O)n(C2CCCCC2)c(=O)[nH]c1=O | 16.3 |
| COc1ccc(CN2CCSc3sccc3C2=O)cc1 | -29.3 |
| CCCOc1ccc(C(=O)Nc2ccc(S(=O)(=O)NC3=NCCCCC3)cc2)cc1 | 10.2 |
| Cc1ccccc1OCC(=O)OCC(=O)c1ccc(OC(=O)c2ccccc2)cc1 | -7.14 |
| COC(=O)c1ccc(NC(=O)CCOc2ccccc2)cc1 | 6.91 |
| COCCCNC(=O)CN1C(=O)COc2ccc(S(=O)(=O)N3CC(C)CC(C)C3)cc21 (stereo not drawn) | 9.86 |
| COCCNC(=O)C(c1cccnc1)N(Cc1ccc(C)cc1)C(=O)Cn1nnc2ccccc21 (stereo not drawn) | 13.3 |
| CN1CCN(C(=O)c2cc(Cl)cc(Cl)c2)CC1 | 7.3 |

| Structure (SMILES) | hERG current change (%, negative = inhibition) at 10uM [%] |
| --- | --- |
| COc1ccc(-c2csc(N(CCc3ccc(OC)c(OC)c3)C(=O)COc3ccccc3)n2)cc1 | 25 |
| COc1cc(NC(=O)C2CCC(CNc3c(N4CCCCC4)c(=O)c3=O)CC2)cc(OC)c1 (stereo not drawn) | 11.3 |
| COc1ccc(CCNC(=O)CCn2c(=O)oc3ccccc32)cc1 | -20.5 |
| COc1ccc(N(C(=O)CNC(=O)c2cccs2)C(C(=O)NCC2CCCO2)c2ccccc2)cc1 (stereo not drawn) | 14.7 |
| COC(=O)c1nn(-c2c(C)n(C)n(-c3ccccc3)c2=O)cc1O | 5.84 |
| FC(F)(F)c1ccccc1CNCc1ccncc1 | 4.43 |
| Cc1ccc(-c2cc(C(=O)NC3=NCCS3)c3cc(Br)ccc3n2)o1 | 6.43 |
| Cc1ccc(S(=O)(=O)/N=C(/NC(=S)Nc2ccccc2)c2ccccc2)cc1 | 6.65 |
| COc1cccc(NC(=O)C2CC(=O)N=C(N)S2)c1 (stereo not drawn) | 9.3 |
| CCC1(C)CC(CCNCc2ccc(N(C)C)cc2)(c2ccc(F)cc2)CCO1 (stereo not drawn) | -8.58 |
| CNC(=O)c1ccc(Nc2nc(-c3ccccc3)nc3ccccc23)cc1 | 15.9 |
| CCn1c(C)nc2cc(C(=O)NNS(=O)(=O)c3cc(Br)ccc3Br)ccc21 | -11.9 |
| Cn1cc(CNCc2cn[nH]c2-c2ccc(F)cc2)c(-c2ccc3c(c2)OCCO3)n1 | -21.6 |
| Cc1ccc(NC(=O)C2=C(c3ccccc3)S(=O)(=O)CCS2(=O)=O)cc1 | 4.9 |
| CCCOc1ccc(Cn2c(C)nc([N+](=O)[O-])c2SCC(O)COC)cc1[N+](=O)[O-] (stereo not drawn) | -66 |
| COCCN1C(=O)CS/C1=C(/C#N)C(=O)NCc1ccco1 | -7.92 |
| CCc1nnc(NC(=O)CSc2nnc(Cc3cc(=O)[nH]c(=O)[nH]3)n2-c2ccc(OC)cc2)s1 | -13.6 |
| O=C1CC(Nc2ccc(N3CCOCC3)cc2)C(=O)N1CCc1ccccc1 (stereo not drawn) | 6.3 |
| CCO[C@@H]1OC(C(=O)N2CCOCC2)=C[C@H](c2coc3ccccc3c2=O)[C@H]1CCCO | 5.99 |
| O=C1/C(=C/c2ccc([N+](=O)[O-])cc2)C=C(c2ccccc2)N1c1ccccc1 | -4.89 |
| OCCNc1ncnc2c1sc1nc(N3CCOCC3)c3c(c12)CCC3 | -25.6 |
